Source: article PMC11286522
Like-named read-outs stand apart in the source and are kept apart here. No constants are given. Whether binding was seen depends on the method and setting. For some assays here: Binding seen in cells or lysates may run through a third protein. Some entries that bind do so weakly or less than the wild type. For some assays here: Tags and fused reporters may be left off the sequences shown.

Amino acid sequences for entries named in this document (tags omitted). Residues count along the entry.
UniProt P08151: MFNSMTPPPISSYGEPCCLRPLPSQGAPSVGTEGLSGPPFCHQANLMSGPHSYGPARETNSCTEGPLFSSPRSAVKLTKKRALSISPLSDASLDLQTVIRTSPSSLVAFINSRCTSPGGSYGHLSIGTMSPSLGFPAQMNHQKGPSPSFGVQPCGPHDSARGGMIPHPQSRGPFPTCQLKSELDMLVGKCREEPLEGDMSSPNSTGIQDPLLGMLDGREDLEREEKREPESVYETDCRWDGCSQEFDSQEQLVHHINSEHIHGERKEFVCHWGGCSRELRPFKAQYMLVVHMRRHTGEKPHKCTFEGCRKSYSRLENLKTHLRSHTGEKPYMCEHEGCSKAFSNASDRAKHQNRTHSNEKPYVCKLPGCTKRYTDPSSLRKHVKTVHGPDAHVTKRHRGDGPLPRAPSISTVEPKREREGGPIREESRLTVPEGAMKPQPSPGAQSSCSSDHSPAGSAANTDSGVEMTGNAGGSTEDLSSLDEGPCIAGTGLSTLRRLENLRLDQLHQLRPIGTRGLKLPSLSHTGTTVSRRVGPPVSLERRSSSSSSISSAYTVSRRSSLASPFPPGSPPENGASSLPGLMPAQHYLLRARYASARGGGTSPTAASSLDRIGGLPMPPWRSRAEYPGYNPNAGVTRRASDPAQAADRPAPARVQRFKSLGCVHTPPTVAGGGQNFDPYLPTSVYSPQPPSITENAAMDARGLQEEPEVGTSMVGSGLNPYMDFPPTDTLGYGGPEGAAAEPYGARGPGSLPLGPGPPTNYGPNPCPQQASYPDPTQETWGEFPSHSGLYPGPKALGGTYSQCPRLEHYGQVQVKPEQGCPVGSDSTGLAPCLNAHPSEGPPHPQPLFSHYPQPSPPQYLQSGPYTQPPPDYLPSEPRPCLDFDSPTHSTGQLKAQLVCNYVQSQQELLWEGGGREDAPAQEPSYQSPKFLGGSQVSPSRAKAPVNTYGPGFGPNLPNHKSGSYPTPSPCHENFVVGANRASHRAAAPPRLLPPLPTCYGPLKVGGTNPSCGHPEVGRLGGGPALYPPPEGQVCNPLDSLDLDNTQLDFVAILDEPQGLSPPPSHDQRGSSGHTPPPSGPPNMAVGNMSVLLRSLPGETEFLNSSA
UniProt O15460, residues 22-535: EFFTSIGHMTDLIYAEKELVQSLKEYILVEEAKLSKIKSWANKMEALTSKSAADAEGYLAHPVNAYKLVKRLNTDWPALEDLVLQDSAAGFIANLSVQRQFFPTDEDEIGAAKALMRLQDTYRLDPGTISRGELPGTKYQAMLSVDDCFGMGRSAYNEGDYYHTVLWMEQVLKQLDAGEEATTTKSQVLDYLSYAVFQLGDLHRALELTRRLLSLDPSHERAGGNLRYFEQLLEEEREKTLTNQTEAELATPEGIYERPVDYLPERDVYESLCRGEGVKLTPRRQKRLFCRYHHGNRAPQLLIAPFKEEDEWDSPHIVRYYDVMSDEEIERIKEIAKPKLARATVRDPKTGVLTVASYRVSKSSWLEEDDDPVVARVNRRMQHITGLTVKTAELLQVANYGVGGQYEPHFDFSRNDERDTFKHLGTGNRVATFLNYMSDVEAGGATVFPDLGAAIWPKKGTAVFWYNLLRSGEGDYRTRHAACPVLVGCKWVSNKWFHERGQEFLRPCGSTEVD
UniProt P10070: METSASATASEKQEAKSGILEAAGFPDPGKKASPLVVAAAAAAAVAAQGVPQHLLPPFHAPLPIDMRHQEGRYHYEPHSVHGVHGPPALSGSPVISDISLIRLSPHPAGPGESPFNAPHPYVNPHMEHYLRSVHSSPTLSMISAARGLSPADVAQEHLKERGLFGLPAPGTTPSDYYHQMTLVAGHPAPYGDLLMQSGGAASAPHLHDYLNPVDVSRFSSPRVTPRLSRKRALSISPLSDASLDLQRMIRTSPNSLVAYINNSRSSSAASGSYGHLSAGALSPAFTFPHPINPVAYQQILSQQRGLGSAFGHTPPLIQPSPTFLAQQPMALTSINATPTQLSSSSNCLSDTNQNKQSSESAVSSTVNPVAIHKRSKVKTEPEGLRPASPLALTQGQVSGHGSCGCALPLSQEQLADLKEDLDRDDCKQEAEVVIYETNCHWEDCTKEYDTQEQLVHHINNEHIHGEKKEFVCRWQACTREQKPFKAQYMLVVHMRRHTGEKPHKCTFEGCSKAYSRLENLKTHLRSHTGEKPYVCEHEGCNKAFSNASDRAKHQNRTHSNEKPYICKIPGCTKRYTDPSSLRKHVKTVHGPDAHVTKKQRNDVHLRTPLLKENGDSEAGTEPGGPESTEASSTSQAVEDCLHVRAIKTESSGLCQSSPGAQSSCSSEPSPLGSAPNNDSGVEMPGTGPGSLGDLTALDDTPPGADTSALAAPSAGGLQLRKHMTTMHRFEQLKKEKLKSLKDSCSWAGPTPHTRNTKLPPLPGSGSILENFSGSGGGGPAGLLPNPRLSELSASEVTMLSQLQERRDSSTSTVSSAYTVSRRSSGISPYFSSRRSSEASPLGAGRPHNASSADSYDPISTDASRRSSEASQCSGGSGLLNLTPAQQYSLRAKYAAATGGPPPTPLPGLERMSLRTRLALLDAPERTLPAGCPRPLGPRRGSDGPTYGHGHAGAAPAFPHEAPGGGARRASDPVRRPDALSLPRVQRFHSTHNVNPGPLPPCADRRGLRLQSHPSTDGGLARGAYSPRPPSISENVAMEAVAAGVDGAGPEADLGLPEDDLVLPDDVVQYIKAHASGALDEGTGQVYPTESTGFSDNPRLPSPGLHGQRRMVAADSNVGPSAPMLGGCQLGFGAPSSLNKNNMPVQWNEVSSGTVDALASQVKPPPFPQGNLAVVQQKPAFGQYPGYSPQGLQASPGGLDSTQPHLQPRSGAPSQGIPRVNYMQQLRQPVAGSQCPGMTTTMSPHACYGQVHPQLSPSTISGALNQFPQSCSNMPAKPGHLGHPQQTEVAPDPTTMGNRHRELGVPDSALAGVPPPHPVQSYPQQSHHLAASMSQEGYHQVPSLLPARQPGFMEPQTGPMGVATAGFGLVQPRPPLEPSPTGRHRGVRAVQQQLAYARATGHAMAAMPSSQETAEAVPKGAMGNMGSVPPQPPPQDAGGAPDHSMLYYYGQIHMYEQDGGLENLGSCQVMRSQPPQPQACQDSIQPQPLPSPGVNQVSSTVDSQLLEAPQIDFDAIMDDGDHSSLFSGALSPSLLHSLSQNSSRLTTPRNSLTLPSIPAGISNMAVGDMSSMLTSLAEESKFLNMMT

Assays:
[1] = molecular target: T1, His-tagged SUFU (UniProt Q9UMX1); experiment: pull-down; His-tagged KIF7, GLI1, SUFU and Flag-tagged P4HA2 proteins purified and incubated; His pulldown; Western blot; both purified
T1 sequence: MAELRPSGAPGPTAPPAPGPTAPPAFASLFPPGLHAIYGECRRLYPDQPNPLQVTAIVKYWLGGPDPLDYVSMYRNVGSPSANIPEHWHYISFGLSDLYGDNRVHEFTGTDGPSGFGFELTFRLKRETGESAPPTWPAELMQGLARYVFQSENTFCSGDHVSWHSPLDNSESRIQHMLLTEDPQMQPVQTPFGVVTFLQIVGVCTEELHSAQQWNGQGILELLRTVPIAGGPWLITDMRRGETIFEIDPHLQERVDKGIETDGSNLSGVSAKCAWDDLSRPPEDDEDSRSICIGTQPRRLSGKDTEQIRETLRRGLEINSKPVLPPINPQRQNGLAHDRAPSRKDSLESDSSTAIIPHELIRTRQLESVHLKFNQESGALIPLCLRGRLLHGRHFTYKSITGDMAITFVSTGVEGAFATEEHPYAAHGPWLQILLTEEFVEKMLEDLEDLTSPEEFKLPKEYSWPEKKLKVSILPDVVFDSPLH

[2] = molecular target: T2, His-tagged KIF7 (UniProt Q2M1P5); experiment: as above
T2 sequence: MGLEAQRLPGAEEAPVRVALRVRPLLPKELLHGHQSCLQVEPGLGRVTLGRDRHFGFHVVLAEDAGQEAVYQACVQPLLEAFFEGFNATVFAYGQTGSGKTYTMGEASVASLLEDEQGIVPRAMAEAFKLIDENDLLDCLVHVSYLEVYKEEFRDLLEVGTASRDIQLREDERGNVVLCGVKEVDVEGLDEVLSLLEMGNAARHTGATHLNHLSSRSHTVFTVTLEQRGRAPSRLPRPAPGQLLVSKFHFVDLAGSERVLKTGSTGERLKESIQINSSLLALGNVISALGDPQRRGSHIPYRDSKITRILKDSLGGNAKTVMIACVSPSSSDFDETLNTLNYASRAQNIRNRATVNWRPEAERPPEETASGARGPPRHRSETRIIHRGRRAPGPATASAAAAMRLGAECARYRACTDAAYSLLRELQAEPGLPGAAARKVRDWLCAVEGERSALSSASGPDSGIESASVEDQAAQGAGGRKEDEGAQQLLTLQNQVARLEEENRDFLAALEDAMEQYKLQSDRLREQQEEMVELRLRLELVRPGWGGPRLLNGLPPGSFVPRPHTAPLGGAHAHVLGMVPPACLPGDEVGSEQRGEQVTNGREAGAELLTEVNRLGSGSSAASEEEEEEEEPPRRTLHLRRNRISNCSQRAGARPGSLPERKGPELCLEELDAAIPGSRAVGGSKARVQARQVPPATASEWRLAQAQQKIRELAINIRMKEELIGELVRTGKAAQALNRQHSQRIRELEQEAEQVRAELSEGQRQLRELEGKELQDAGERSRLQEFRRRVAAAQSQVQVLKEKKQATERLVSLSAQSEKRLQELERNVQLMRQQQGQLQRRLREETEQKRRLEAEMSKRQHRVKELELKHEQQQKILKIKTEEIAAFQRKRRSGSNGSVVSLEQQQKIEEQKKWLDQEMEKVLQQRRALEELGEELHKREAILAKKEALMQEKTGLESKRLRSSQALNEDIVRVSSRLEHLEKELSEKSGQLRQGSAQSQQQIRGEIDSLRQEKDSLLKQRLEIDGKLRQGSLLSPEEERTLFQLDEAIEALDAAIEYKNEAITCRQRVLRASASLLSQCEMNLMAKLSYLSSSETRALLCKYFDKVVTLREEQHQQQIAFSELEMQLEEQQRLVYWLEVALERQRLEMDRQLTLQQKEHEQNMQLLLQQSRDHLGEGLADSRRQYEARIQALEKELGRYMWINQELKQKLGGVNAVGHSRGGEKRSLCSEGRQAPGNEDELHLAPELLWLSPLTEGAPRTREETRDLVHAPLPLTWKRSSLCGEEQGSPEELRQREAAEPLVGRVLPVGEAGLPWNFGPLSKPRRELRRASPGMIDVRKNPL

[3] = molecular target: His-tagged GLI1 (UniProt P08151); experiment: as above
[4] = molecular target: Flag-tagged P4HA2 (UniProt O15460); experiment: co-IP; HEK293T transfected with Flag-tagged constructs; lysate in RIPA or Cell Lysis Buffer; M2 anti-Flag beads, 4 °C, 3 hr; Western blot
[5] = molecular target: T3, KIF7 (endogenous) (human (endogenous in HEK293T)) (UniProt Q2M1P5); experiment: co-IP; endogenous KIF7 and P4HA2 precipitated with specific antibodies from a HEK293T cell extract; immunoblotting
T3 sequence: T2 sequence

[6] = molecular target: T4, Flag-tagged KIF7 (UniProt Q2M1P5); experiment: co-IP; HEK293T transfected with Flag-tagged constructs; lysate in RIPA or Cell Lysis Buffer; M2 anti-Flag beads, 4 °C, 3 hr; Western blot
T4 sequence: T2 sequence

[7] = molecular target: Flag-tagged P4HA2 (UniProt O15460); experiment: as above; remark: listed apart in the source
[8] = molecular target: P4HA2 (endogenous) (human (endogenous in HEK293T)) (UniProt O15460); experiment: co-IP; endogenous KIF7 and P4HA2 precipitated with specific antibodies from a HEK293T cell extract; immunoblotting

Flag-tagged P4HA2 (from UniProt O15460 22-535)
binding [1]: no binding | binding [2]: binds | binding [3]: no binding

GLI2 (endogenous) (from UniProt P10070 1-1586)
binding [4]: binds

P4HA2 (endogenous) (from UniProt O15460 22-535)
binding [5]: binds | binding [6]: binds

B1: KIF7 (endogenous) (protein, UniProt Q2M1P5 1-1343)
chain: T2 sequence
binding [7]: binds | binding [8]: binds
